# Measured values taken from ChEMBL document CHEMBL4888484, “Replenishing the malaria drug discovery pipeline: Screening and hit evaluation of the MMV Hit Generation Library 1 (HGL1) against asexual blood stage Plasmodium falciparum ,using a nano luciferase reporter read-out” (2022).
# Several values for one entry are separate records, joined by “and”; a condition that tells them apart may be missing. Equal values may be shown once. Hit rate of the full screen: of about 150,000 compounds, about 540 (0.36%) showed an effect of 50% or more. The list shows a part of the results.
# System: Plasmodium falciparum
# Test: Primary screen in NF54 nanoGlo assay, in single point, at 2uM, 72h; a lower Z score goes with more inhibition
# Type: functional, Erythrocyte
# Conditions: timepoint 72 hour
SMILES,% Inhibition,Z score,% Inhibition (2 µM)
O=C(Cc1cscn1)N1CCN(C(=O)c2ccsc2)CC1,-12%,2.37,
Cc1cccc(OCc2nc(C(=O)NC[C@H]3CCCO3)cs2)c1C,-17%,1.71,
Cc1ccccc1C(=O)Nc1ccc2c(c1)N(C(=O)c1ccccc1)CCC2,-2%,0.19,
CN1CCN(Cc2ccc(C(N)=O)cc2)C[C@@]12CCC(=O)N(CC1CC1)CC2,-5%,0.76,
COCCN=C(NCCc1ccc(OC)cc1)NCc1nccs1,-1%,0.2,
Cc1ccc(C(=O)NCC(=O)O[C@H]2CCOC2=O)cc1,2%,-0.15,
Cc1cc(C(=O)Nc2ccc3c(c2)C(=O)N(C)C3=O)sc1C,-13%,1.8,
CC(=O)N1CCc2cc(S(=O)(=O)[C@@H](C)CC(=O)N3CCN(c4cccc(C)c4C)CC3)ccc21,5%,-0.85,
Cc1nc(N[C@H]2CCCc3ccccc32)cc(C2CC(O)C2)n1 (some centres undefined),2%,-0.32,
O=C(CCOc1cccc(Cl)c1)N1CC[C@@](O)(C(F)F)C1,-6%,1.24,
O=C(NC[C@H]1CCCCS1(=O)=O)NC1CC(C(F)(F)F)C1 (some centres undefined),3%,-0.51,
Cc1cc(C)c(CN2CCOC[C@@H]2C(=O)O)cc1CN1CCC(C)CC1,-16%,2.48,
CCC(C#N)(CC)C(=O)Nc1cc2cc[nH]c2cn1,10%,-1.32,
CC(C)(C)OC(=O)N1CC(Oc2ncccc2F)C1,-3%,0.32,
CN(Cc1csc(-c2cccs2)n1)c1ncnc2c1CCNCC2,10%,-1.3,
Cc1cc(C)n(CCCn2ccnc2-c2ccc(N(C)C)nc2)n1,-1%,0.11,
CC(=O)N1CCN(c2ccc(NCc3ccccc3)cc2)CC1,-32%,3.8,
O=S(=O)(c1ccccc1)C1CC2CCC(C1)N2S(=O)(=O)c1cccnc1 (centres undefined),1%,-0.09,
C[C@@H](CC#N)N(C)C(=O)c1cc(F)c[nH]1,6%,-0.62,
CCCC1(CCC)NC(=O)N(CC(=O)NCCCOC)C1=O,-5%,0.94,
Cc1nc(-c2ccc(NC(=O)c3cccs3)cc2)co1,-3%,0.41,
O=C(NC1CCOCC1)c1ccc(NC(=O)C2CC=CC2)cc1,-4%,0.44,

SMILES,% Inhibition,Z score,% Inhibition (2 µM)
O=C(c1ccccc1OCc1ccccc1)N1CC[C@@H]2CNC[C@@H]21,8%,-1.05,
CC(=O)c1cccc(NC(=O)[C@@H]2CN(S(=O)(=O)c3ccccc3)c3cc(C(C)(C)C)ccc3O2)c1,-10%,1.51,
CCOc1cc(CN(CC)C(=O)Cc2cnn(-c3ccccc3)c2)ccc1OCc1cccs1,-1%,0.08,
COc1ccc(N2CCN(C(=O)c3cnn(C(C)(C)C)c3C3CCN(C(=O)OC(C)(C)C)CC3)CC2)cc1,14%,-2.15,
CN1CCN(c2nc3c(c(N4CCCC4)n2)CN(C(=O)NCc2ccccc2)CC3)CC1,8%,-0.8,
Cc1cc(Br)cnc1NC(=O)[C@H]1CCS(=O)(=O)C1,-2%,0.39,
O=C(Nc1ccc(-n2cncn2)nc1)C1CCCCC1C(F)(F)F (centres undefined),-1%,0.25,
Cc1cc(C(=O)Nc2ccc([C@@H](O)[C@H]3COCC(=O)N3Cc3ccccc3F)cc2)n(C)n1,10%,-1.16,
CC(C)(CCCc1ccccc1)C(=O)NC1CCS(=O)(=O)CC1,-1%,0.11,
CCCN(Cc1nccn1C)C(=O)NCc1nc(CC)cs1,-13%,2.37,
COCCCN(Cc1c(-c2ccccc2)noc1N1CCCC[C@@H]1C)C(=O)C1CCCC1,2%,-0.28,
CCn1c(C)cc(C(=O)N2C[C@@H]3CC[C@H]2CN(Cc2[nH]cnc2C)C3)c1C,-8%,1.19,
O=C(c1cc2ccccc2o1)N1CCC[C@@H]1Cn1nccn1,-2%,0.31,
O=C(CN1CCN2C(=O)OC[C@H]2C1)NCC1CCCCC1,-2%,0.31,
CCCN1C[C@@H](NC(=O)COc2ccc(Cl)cc2Cl)CC1=O,-7%,0.81,
CCO[C@@H](C)c1ncc(C(=O)Nc2ccc(-c3nnn[nH]3)cc2)s1,-5%,0.73,
COCc1cc(CN(C)c2cc(C(C)C)nc(C)n2)n[nH]1,-1%,0.09,
CCN(c1ccccc1)c1ccc(CNC(=O)Cn2cncn2)cc1,9%,-1.26,
NC(=O)c1cncc(CCOc2ccc(F)cc2)c1,-10%,2.05,
CC1CC1C(=O)NCCC(=O)NC(C)(C)C (centres undefined),-9%,1.37,
CCN(C(=O)c1cccnc1C)[C@H]1CCN(Cc2ccccc2)C1,-8%,1.05,
COc1ccccc1NC(=O)Cn1c2ccccc2n2c(=O)cc(-c3cccc(Cl)c3)nc12,-4%,0.45,

SMILES,% Inhibition,Z score,% Inhibition (2 µM)
CC(c1ccccc1)n1nnnc1N1C[C@@H]2[C@H](C1)[C@H]1CC[C@@H]2O1 (some centres undefined),-8%,1.15,
O=C(CCC(F)(F)F)NCCCCc1ccccn1,-5%,0.61,
Cc1nnc2c(N3CC[C@H](NC(=O)c4cc(-c5ccccc5)n[nH]4)C3)nccn12,-4%,0.5,
CC1CCC(NC(=O)CN2CCN(c3ncc(C(F)(F)F)s3)CC2)CC1 (centres undefined),-3%,0.69,
CN(C)c1ncc(CN[C@H]2CCc3sc(Cl)cc32)s1,1%,-0.07,
O=C(C(=O)N1CC[C@@]2(CCCN(Cc3ccccc3F)C2)C1)c1ccccc1,1%,-0.13,
Cc1ccccc1Oc1nc(N2CCCCC2)nc2c1CN(C(=O)c1ccco1)CC2,1%,-0.23,
Cc1nn(C)cc1-c1ccc(C(=O)N2CCC3(CCNC(=O)CC3)CC2)cc1,5%,-0.66,
CC(C(=O)N1CCC(=O)NCCN(c2nc3cc(C)cc(C)c3o2)CC1)=C1CCC1,0%,0.02,
CCCc1cc(CN(C)[C@H]2CCN(c3ccccc3)C2)n[nH]1,-3%,0.39,
CC1(C)C[C@@H]2C[C@@](C)(CN2C(=O)c2cnc(-c3cccnc3)nc2)C1,-21%,3.45,
CN(Cc1nccn1C(F)F)S(=O)(=O)CC1(C#N)CCCC1,-7%,0.89,
O=C(CCS(=O)(=O)c1ccc(Cl)cc1)NCc1cccnc1,-30%,3.47,
CN(C)CCNC(=O)c1ccc(Cl)c(N)c1,,,-13% and 2%
Cc1ccccc1Cn1nnc2scnc2c1=O,-12%,1.42,
COc1nc(C)cc(NC2CCS(=O)(=O)CC2)n1,-5%,0.89,
Cc1ccc(S(=O)(=O)N2CCC(C(=O)O[C@@H](C)C(=O)N(C)C3CCCCC3)CC2)cc1,-7%,1.42,
Cc1[nH]ccc1C(=O)N[C@H]1CCn2ccnc21,-16%,1.91,
Cc1noc(C)c1S(=O)(=O)NCc1nncn1C(C)C,-4%,0.57,
COc1ccc(S(=O)(=O)N(C)C2CCCCC2O)cc1C(=O)N1CCCCCC1 (centres undefined),-5%,0.74,
CCCc1ccc(OCCNC(=O)C2CCCCC2)cc1,-12%,1.54,
CCCC(CCC)C(=O)Nc1c(C)cccc1CC,1%,-0.14,

SMILES,% Inhibition,Z score,% Inhibition (2 µM)
O=C(c1ccc(=O)n(Cc2ccc(F)cc2)n1)N1CCCCC1,7%,-0.96,
OC1CCCC1N1CCc2ccccc2C1 (centres undefined),-14%,2.59,
O=S(=O)(NC1CC2CCC1C2)c1ccc2ccccc2c1 (centres undefined),-9%,1.27,
CCOC(=O)c1cnn(-c2cccc(NC(=O)c3ccc4ncsc4c3)c2)c1C(F)(F)F,-5%,0.53,
O=C1CN(C(=O)[C@]2(c3ccccc3)CCCO2)Cc2ccccc2N1,8%,-1.12,
C=CC[N+]1(CC#CCOC(c2ccccc2)c2ccccc2)CCOCC1,-5%,0.65,
CN(C(=O)[C@@H]1CCCO1)C1CCCCCC1,-6%,0.83,
CC1(C)CCN(C(=O)c2ccc3c(c2)CCCC3=O)CCS1(=O)=O,-5%,0.62,
O=C(c1ccc2c(c1)CCC2)N1CCC(CN2CCCC2)CC1,9%,-1.61,
C[C@@H](C1CC1)N(C)C(=O)Cc1ccc(F)cc1F,3%,-0.47,
CCN(CC)c1cc(CCC(=O)NCc2cccc(OC)c2OC)ccn1,18%,-2.13,
CN(CCn1cccn1)[C@@H](C(=O)O)c1c(F)cccc1Cl,9%,-1.11,
COc1cc(C2Nc3ccc(C)cc3[C@H]3OCC[C@@H]23)cc(Cl)c1OC (some centres undefined),-1%,0.2,
CC(C)n1ccnc1CN1CCC2(CCC(=O)N(Cc3cccnc3)C2)CC1,-7%,1.02,
Cn1ncc2c(=O)[nH]c(N3CCC[C@H]3c3ncc[nH]3)nc21,-5%,0.95,
CC(C)(C)OC(=O)NCCN(CCO)C(=O)c1ccccc1OC(F)F,2%,-0.34,
FC(F)Cn1ccc(NCc2cnsc2)n1,6%,-0.92,
COc1ccc(C[C@@H](Cc2ccc3c(c2)OCO3)NC(=O)c2cccc(Cl)c2)cc1,-3%,0.63,
Cc1cccc(C)c1NC(=O)Cc1csc(-n2nc(C)c(Cl)c2C)n1,-12%,2.22,
